# Measurements: PubChem BioAssay AID588453 (National Center for Advancing Translational Sciences (NCATS), 2011)
# Among all 390,000 compounds or so, about 4,000 (1%) were called active. Inconclusive means that the source gave no clear call. Such entries were picked first, then a sample of the others. Calls follow the shape of the dose curve; as a rule, active = well fitted inhibition curve with a large enough effect; inconclusive = small, poorly fitted or top-dose-only effect; inactive = no such curve, though single readings can be large or run the other way. A potency beside an inconclusive call is a rough fit, not a confirmed value.
# Biological target: Thioredoxin reductase 1, cytoplasmic (Rattus norvegicus) (UniProt O89049)
# UniProt O89049, sequence (O89049 whole entry, looked up): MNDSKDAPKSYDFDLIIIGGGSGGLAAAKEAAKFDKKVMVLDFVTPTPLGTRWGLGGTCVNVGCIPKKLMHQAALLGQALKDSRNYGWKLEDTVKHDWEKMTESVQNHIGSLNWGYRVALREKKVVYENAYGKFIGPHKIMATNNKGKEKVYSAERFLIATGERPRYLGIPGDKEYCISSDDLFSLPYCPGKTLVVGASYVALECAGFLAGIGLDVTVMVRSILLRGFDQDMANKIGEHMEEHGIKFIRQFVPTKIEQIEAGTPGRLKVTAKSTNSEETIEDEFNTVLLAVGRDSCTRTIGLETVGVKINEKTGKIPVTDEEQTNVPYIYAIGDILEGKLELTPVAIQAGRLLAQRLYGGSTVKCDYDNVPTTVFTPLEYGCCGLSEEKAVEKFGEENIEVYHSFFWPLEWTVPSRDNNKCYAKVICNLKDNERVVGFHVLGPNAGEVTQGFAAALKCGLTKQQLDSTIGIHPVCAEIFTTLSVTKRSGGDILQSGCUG
# Experiment: qHTS Assay for Inhibitors of Mammalian Selenoprotein Thioredoxin Reductase 1 (TrxR1): qHTS; also: nearly all actives have a fitted effect of over 65% in size
# Details: recombinant rTrxR1, NADPH fluorescence consumption, selenite substrate; series mostly up to 114 µM
# Procedure, shortened: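 Rat TrxR1 (90 nM in the dispensed reagent) was pre-reduced with 400 uM NADPH for 5 min at room temperature, then incubated with compound for 15 min. After 400 uM selenite was added, NADPH fluorescence (Ex 340/Em 450 nm) was followed for 8 min.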
# % is scaled to controls: 0 for no effect and ±100 for the full control effect; potency is read from the fitted curve at half-maximal effect; tags tell the direction and shape of the fitted curve.
SMILES,Potency,"activity change, negative = inhibition"
CN(C)CCCN(C(=O)CCOc1ccccc1)c1nc2ccc(F)cc2s1,active: 0.631 µM,–
COc1ccc(Br)cc1/C=N/Nc1ccc(S(=O)(=O)Nc2ccccc2C(=O)O)cc1[N+](=O)[O-],"inconclusive: 89.1 µM [inhibitor, single point]",–
COc1cccc(NCc2cccn2-c2nnc(N3CCC(C)CC3)s2)c1,"inconclusive: 50.1 µM [inhibitor, partial curve]",–
C=CCNc1oc(-c2ccco2)nc1S(=O)(=O)c1ccccc1,active: 44.7 µM,–
Cc1ccc(-c2nc(CS(=O)CC(=O)NCCCc3ccccc3)c(C)o2)cc1 (centres undefined),"inconclusive: 50.1 µM [inhibitor, partial curve, poor fit]",–
COC(=O)c1ccc([C@@H]2Nc3c(OC)ccc(C)c3[C@@H]3C=CC[C@@H]32)cc1,active: 56.2 µM,–
NC(N)=NS(=O)(=O)c1ccc(NC(=S)NC(=O)c2ccccc2)cc1,active: 50.1 µM,–
CC1(C)CC(=O)C(C=NCCCN2CCOCC2)=C(O)C1,"inconclusive: 70.8 µM [inhibitor, partial curve, poor fit]",–
COc1cccc2c(=O)cc(C)n(CC(=O)Nc3ccc(C)c(C)c3)c12,inactive,–
O=C(NCCN1CCOCC1)c1ccc(CS(=O)(=O)c2c(Cl)cccc2Cl)o1,"inconclusive: 56.2 µM [inhibitor, partial curve]",–
O=C(N/N=C/c1sc(=O)n(Cc2ccc(Br)cc2)c1Cl)c1ccco1,"inconclusive: 50.1 µM [inhibitor, partial curve]",–
Cc1ccc(CS(=O)(=O)c2ccc(C(=O)N3CCN(c4ccccn4)CC3)cc2[N+](=O)[O-])cc1,"inconclusive: 15.8 µM [inhibitor, partial curve]",–
Clc1ccc(C2=CC(c3ccco3)n3ncnc3N2)cc1 (centres undefined),"inconclusive: 28.2 µM [inhibitor, single point]",–
O=C(CSc1nnc2c(n1)[nH]c1ccccc12)NCc1ccco1,inactive,–
O=C1c2cccc3c(N4CCCCC4)ccc(c23)C(=O)N1CCO,inactive,–
Cc1ccc(S(=O)(=O)N2CCC(C(=O)N3CCN(Cc4ccccc4)CC3)CC2)cc1,"inconclusive: 25.1 µM [inhibitor, single point]",–
Nc1c(Cl)cnn(-c2ccccc2)c1=O,inactive,–
CC1CCN(Cc2nc(Cl)c3c4c(sc3n2)CCC4)CC1,active: 31.6 µM,–
CCn1cc(/C=C(\NC(=O)c2ccc(OC)c(OC)c2)C(=O)NCCN2CCOCC2)c2ccccc21,"inconclusive: 79.4 µM [inhibitor, single point]",–
CCC1CC=CC2C1C(=O)N(Cc1ccccc1)C2c1ccoc1 (centres undefined),"inconclusive: 22.4 µM [inhibitor, single point]",–
Clc1ccc(-c2ccc(CNCc3ccccn3)o2)cc1,"inconclusive: 56.2 µM [inhibitor, partial curve, poor fit]",–
CCOc1ccccc1NC(=O)Cc1coc2c(C)c(C)ccc12,inactive,–
CC1(C)Cc2c(C#N)c(NCCc3ccccc3)nc(-c3ccco3)c2CO1,"inconclusive: 8.91 µM [inhibitor, partial curve]",–

SMILES,Potency,"activity change, negative = inhibition"
COC(=O)c1cc(C(=O)OCC(=O)c2ccc3c(c2)NC(=O)CO3)cc([N+](=O)[O-])c1,"inconclusive: 28.2 µM [inhibitor, single point]",–
CCCN(CCC)CCCNC(=O)CS(=O)Cc1nc(-c2ccc(OC)c(OC)c2)oc1C (centres undefined),"inconclusive: 89.1 µM [inhibitor, single point]",–
S=c1[nH]c2ccccc2n1Cc1ccccc1,inactive,–
Cc1nc2c(C(=O)NCc3ccccc3Cl)c[nH]n2c(=O)c1Cc1cccc(Cl)c1,inactive,–
COc1ccccc1CN(C)CC(=O)c1c(C)[nH]c2ccccc12,"inconclusive: 89.1 µM [inhibitor, single point]",–
Cc1ccc(N(C)S(=O)(=O)c2cccc(C(=O)NC3CC(C)(C)NC(C)(C)C3)c2)cc1,inactive,–
CC(C)(C)n1nnnc1C(c1ccncc1)N(Cc1ccccc1)Cc1ccco1 (centres undefined),"inconclusive: 44.7 µM [inhibitor, partial curve, poor fit]",–
O=C(Cc1ccc(Cl)cc1)Nc1ccccc1Sc1ccccc1,inactive,–
Cc1c(CNCCc2ccccc2Cl)c(C(=O)O)c(C)n1-c1ccccc1,"inconclusive: 44.7 µM [inhibitor, partial curve, poor fit]",–
CCc1cccc(N(C)C(N)=Nc2cccc3ccccc23)c1,inactive,–
COc1ccc(Cl)cc1C(=O)NNC(=S)NC(=O)/C=C/c1ccco1,inactive,–
O=C(Cn1ccn(-c2cccc(Cl)c2)c(=O)c1=O)NCCc1ccccc1,–,inactive: -25.6% [at 11.4 µM]
COc1cc([C@@H]2Oc3cc(C4Oc5cc(O)cc(O)c5C(=O)[C@H]4O)ccc3O[C@H]2CO)ccc1O (some centres undefined),"inconclusive: 79.4 µM [inhibitor, single point]",–
O=C(Nc1ccccc1N1CCCC1)c1ccc([N+](=O)[O-])o1,"inconclusive: 44.7 µM [inhibitor, partial curve]",–
Brc1cccc[n+]1CCC[n+]1ccccc1Br,active: 6.31 µM,–
CCC(C)Sc1ccc([C@@H]2[C@@H]3C(=O)N(C)C(=O)[C@@H]3[C@]3(C(=O)OC)CCCCN23)cc1OC (some centres undefined),"inconclusive: 56.2 µM [inhibitor, single point]",–
CCn1nc(NS(=O)(=O)c2cccc3nonc23)c2cc3ccc(C)cc3nc21,"inconclusive: 70.8 µM [inhibitor, partial curve, poor fit]",–
COc1ccc(-n2c(-c3ccc(Cl)cc3)c[n+]3c2CCc2ccccc2-3)cc1,inactive,–
CC1CCN(C(=O)Cn2cc(SCc3ccccc3)c3ccccc32)CC1,inactive,–
CC12CCC=CC1C(c1ccc(Br)cc1F)N(Cc1ccccc1)C2=O (centres undefined),"inconclusive: 22.4 µM [inhibitor, single point]",–
O=C(NCc1nc2ccccc2[nH]1)C1=C[C@@H](c2csc3ccccc23)C[C@@H](OCc2ccc(CO)cc2)O1,"inconclusive: 56.2 µM [inhibitor, single point]",–
COC(=O)c1ccc(NS(=O)(=O)c2cc3c4c(c2)CCN4C(=O)CC3)cc1,inactive,–
Cc1cc(C2=NNC(=NC3CC3)SC2)c(C)n1Cc1ccco1,inactive,–

SMILES,Potency,"activity change, negative = inhibition"
Cc1ccc(C(=O)c2c(C)oc3c2C(=O)C(=O)c2ccccc2-3)cc1,inactive,–
CCC(C)NC(=O)Cc1c(C)c2cc3c(cc2oc1=O)OC(C)(C)CC3 (centres undefined),"inconclusive: 22.4 µM [inhibitor, single point]",–
C=CCOc1c(Br)cc(/C=C2/C(=O)ON=C2C)cc1OC,"inconclusive: 22.4 µM [inhibitor, single point]",–
CC1=NN(c2ccc(Cl)cc2)C(=O)C1C(c1cccc(O)c1)c1c(C)[nH]n(-c2ccc(Cl)cc2)c1=O (centres undefined),"inconclusive: 17.8 µM [inhibitor, partial curve, poor fit]",–
CCn1nnc(NC(=S)NC(=O)c2ccc(-c3cccc(Cl)c3)o2)n1,"inconclusive: 39.8 µM [inhibitor, single point]",–
C=CCn1c(SCC(=O)N2CCOCC2)nc2scc(-c3ccco3)c2c1=O,active: 44.7 µM,–
CC1CC1c1ccc(/C=C(\C#N)C(=O)Nc2cccc(Cl)c2Cl)o1 (centres undefined),"inconclusive: 89.1 µM [inhibitor, partial curve, poor fit]",–
COc1ccc(C(C[N+](=O)[O-])c2c(-c3ccccc3)cc3ccccn23)cc1OC (centres undefined),active: 15.8 µM,–
FC(F)(F)c1cccc(NC(=S)Nc2ccc(Cl)cc2Cl)c1,"inconclusive: 14.1 µM [inhibitor, full curve, poor fit]",–
Cc1oc(-c2ccccc2F)nc1CS(=O)(=O)CC(=O)N1CCOCC1,"inconclusive: 22.4 µM [inhibitor, single point]",–
CC(CCCC(C)(C)O)NC(=O)c1cc(COc2ccc3ncccc3c2)on1 (centres undefined),inactive,–
Nc1ncnc2c1nc(Br)n2C1OC2COP(=O)(O)O[C@@H]2C1O (some centres undefined),inactive,–
C=CCN=C1S/C(=C\c2ccc(Cl)cc2)C(=O)N1CC=C,"inconclusive: 79.4 µM [inhibitor, single point]",–
CCOC(=O)C1=C(C)NC(SCc2cc(=O)[nH][nH]2)=C(C#N)C1c1cccs1 (centres undefined),"inconclusive: 1.78 µM [inhibitor, full curve]",–
Cc1ccc(C(=O)c2coc3cc([N+](=O)[O-])c(O)c([N+](=O)[O-])c23)cc1,"inconclusive: 35.5 µM [inhibitor, full curve]",–
COc1cc(C=C(C(C)=O)C(C)=O)ccc1O,"inconclusive: 39.8 µM [inhibitor, single point]",–
CNCc1ccccc1OCC(=O)Nc1ccccc1OC,"inconclusive: 14.1 µM [inhibitor, full curve]",–
O=S(=O)(c1ccccc1)c1nc(-c2ccco2)oc1NCc1cccnc1,"inconclusive: 25.1 µM [inhibitor, single point]",–
CCN(CC)c1ccc(/C=N/n2c(=S)[nH]nc(C)c2=O)cc1,inactive,–
O=C(CCc1ccccc1)NC(=S)Nc1cc(C(F)(F)F)ccc1N1CCOCC1,"inconclusive: 50.1 µM [inhibitor, partial curve]",–
CCC(Oc1ccc2c(c1)C(=O)CC(C)(C)O2)C(=O)NCCN1CCCCCC1 (centres undefined),"inconclusive: 63.1 µM [inhibitor, single point]",–
CCCCN(Cc1cc2cc(OC)ccc2[nH]c1=O)C(=O)c1ccco1,"inconclusive: 28.2 µM [inhibitor, single point]",–
CCCCOc1ccc(CNC(=O)C2CCCN(c3nnc(-n4c(C)ccc4C)s3)C2)cc1 (centres undefined),"inconclusive: 15.8 µM [inhibitor, full curve]",–
